Test results: publication PMC7794930
Where two headings read alike, the source gives them in different places. No constants are given. Whether binding was seen depends on the method and setting. Binding seen in cells or lysates may run through a third protein. Some binding calls cover weakened binding; strength is not graded here. For some of these results: Tags and fused reporters may be left off the sequences shown.

Protein sequences, listed by entry. Tags and fused reporters are not part of them.
UniProt P11075: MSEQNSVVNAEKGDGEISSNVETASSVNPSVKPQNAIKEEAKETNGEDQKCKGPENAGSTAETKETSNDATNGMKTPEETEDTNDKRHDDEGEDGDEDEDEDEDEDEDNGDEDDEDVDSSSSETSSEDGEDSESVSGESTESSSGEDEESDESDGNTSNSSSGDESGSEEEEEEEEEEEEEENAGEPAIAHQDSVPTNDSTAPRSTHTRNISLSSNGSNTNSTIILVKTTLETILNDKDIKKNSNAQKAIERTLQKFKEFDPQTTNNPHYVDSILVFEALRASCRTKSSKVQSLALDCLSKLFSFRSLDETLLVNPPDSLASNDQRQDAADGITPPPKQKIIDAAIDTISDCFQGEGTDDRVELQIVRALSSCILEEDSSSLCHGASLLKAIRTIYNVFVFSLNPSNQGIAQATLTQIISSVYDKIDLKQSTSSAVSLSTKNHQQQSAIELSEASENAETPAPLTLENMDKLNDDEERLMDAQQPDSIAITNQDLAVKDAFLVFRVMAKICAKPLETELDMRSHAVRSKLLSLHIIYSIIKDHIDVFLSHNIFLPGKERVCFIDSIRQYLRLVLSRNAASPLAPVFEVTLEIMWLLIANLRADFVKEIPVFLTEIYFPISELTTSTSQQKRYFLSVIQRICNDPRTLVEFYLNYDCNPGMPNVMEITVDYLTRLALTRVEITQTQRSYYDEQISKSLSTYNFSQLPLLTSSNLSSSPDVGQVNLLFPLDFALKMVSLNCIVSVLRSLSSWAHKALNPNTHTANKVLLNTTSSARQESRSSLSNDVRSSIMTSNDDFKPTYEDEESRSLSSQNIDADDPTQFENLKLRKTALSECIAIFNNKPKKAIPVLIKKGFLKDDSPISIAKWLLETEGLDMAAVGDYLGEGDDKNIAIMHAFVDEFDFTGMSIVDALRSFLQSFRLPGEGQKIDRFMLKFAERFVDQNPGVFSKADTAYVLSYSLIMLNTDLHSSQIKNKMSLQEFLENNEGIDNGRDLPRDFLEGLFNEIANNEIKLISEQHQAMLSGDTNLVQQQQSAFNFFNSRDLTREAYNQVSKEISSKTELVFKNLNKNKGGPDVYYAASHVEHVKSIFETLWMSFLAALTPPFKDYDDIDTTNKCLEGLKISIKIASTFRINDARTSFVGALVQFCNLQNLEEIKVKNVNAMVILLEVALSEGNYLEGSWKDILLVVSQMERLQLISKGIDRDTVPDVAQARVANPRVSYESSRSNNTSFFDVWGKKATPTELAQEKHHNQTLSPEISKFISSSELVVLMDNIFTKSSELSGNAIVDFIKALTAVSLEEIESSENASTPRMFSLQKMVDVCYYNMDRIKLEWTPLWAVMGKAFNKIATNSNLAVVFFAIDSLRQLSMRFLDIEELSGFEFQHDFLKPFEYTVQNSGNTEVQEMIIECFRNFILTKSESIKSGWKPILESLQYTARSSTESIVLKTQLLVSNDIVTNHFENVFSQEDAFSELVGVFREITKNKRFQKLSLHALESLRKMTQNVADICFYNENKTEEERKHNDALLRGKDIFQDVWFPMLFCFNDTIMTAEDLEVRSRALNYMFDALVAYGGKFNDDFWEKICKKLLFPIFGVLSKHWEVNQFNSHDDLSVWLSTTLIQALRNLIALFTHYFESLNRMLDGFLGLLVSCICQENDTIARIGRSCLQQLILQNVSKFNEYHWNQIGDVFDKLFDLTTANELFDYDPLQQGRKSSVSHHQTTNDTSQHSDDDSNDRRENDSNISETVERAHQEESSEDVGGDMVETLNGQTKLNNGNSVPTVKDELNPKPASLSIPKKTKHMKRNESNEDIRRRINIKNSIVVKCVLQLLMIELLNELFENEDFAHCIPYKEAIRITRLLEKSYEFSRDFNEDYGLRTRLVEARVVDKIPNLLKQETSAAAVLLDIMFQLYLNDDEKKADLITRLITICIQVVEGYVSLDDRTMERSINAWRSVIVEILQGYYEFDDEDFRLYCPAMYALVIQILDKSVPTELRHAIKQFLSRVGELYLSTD

Assays:
[1] = target: T1, Emp24-CFP (p24 complex subunit) (S. cerevisiae) (UniProt P32803); assay: co-IP; native co-IP of GFP- or CFP-tagged bait with GFP-Trap_A (3 h, 4 °C) from S13 enriched-Golgi fraction solubilized with 1% Triton X-100 in HEPES buffer (20 mM HEPES pH 7.2, 100 mM KCl, 5 mM MgCl2); immunoblot; wild-type, emp24Δ, or erg6Δ cells with or without 100 µg/mL BFA
T1 sequence: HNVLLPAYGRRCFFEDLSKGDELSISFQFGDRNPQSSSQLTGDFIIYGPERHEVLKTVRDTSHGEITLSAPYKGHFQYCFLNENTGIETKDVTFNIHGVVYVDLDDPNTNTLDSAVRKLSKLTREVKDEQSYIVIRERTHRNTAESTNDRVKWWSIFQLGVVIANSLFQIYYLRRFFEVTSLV

Arf1-GFP (S. cerevisiae) = target: T2, Arf1-GFP (S. cerevisiae) (UniProt P11076); assay: as above
T2 sequence: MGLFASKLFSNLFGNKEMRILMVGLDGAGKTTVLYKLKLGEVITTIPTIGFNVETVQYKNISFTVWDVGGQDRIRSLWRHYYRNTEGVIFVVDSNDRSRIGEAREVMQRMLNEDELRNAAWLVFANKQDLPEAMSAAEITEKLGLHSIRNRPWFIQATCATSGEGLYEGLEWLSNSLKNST

[2] = target: T1, Emp24-CFP (p24 complex subunit) (S. cerevisiae); assay: as above; remark: listed apart in the source
[3] = target: T3, Erv25 cytoplasmic tail peptide (…) (S. cerevisiae); assay: pull-down; synthetic tail peptides coupled by an N-terminal cysteine to thiopropyl-Sepharose 6B beads, incubated with cytosol of a wild-type strain expressing HA-Gea1; bound material by SDS-PAGE and immunoblot; only the target purified
T3 sequence (peptide, N-terminal cysteine linked to thiopropyl-Sepharose 6B): CKNYFKTKHII

For Sec7-dsRed (from UniProt P11075 1-2009), the binding [1] was “no binding”.

B1: Cop1 (yeast α-COP), COPI coat subunit (protein, UniProt P53622 1-1201)
chain: MKMLTKFESKSTRAKGIAFHPSRPWVLVALFSSTIQLWDYRMGTLLHRFEDHEGPVRGLDFHPTQPIFVSAGDDYTIKVWSLDTNKCLYTLTGHLDYVRTVFFHRELPWIISASDDQTIRIWNWQNRKEIACLTGHNHFVMCAQFHPTDDLIVSASLDETIRIWDISGLRKRHSAPGTSSFEEQMSAQQNLLDGSLGDCVVKFILEGHTRGVNWASFHPTLPLIVSGSDDRQVKLWRMSATKAWEVDTCRGHTNNVDSVIFHPHQNLIISVGEDKTLRVWDLDKRTPVKQFKRENDRFWLIAAHPHINLFGAAHDSGIMVFKLDRERPCSFIHQNQLFFVNAEKQIQSFNFQKRVASLPYASLKGIGQPWDAFRSISYNPSQHSVLVNEANGKFALVILPKQPVGAVEPTSVTQDTGNFATFVGRNRFVVYNKNTESVEVRSLENKVTRNIKVEETVRTIVAAGPGSVLVIHPREVILYDVQQGKKVSQLAVKNVKYVSWSLDGQYVALMSKHTITLATKKLELINSMHETIRIKSAAWDETGVLIYSTLNHIRYSLLNGDRGIIKTLEKTLYITKVQGKLVYCLNREGEIEILTIDPTEYRFKKALVNKNFPEVLRLIKDSNLVGQNIISYLQKSGYPEIALQFVQDPHIRFDLALEYGNLDVALDEAKKLNDSSTWERLIQEALAQGNASLAEMIYQTQHSFDKLSFLYLVTGDVNKLSKMQNIAQTREDFGSMLLNTFYNNSTKERSSIFAEGGSLPLAYAVAKANGDEAAASAFLEQAEVDEQDVTLPDQMDASNFVQRPVISKPLEKWPLKEAELSYFEKAVLGQIDDLTIDDETPAVNTTQEQEEPLGEENFNDEDIGEDEGAWDLGDEDLDVGEELPEEVEQGEITSPAQEVETAIWIKNSKLPAVLVAAGAFDAAVQALSKQVGVVKLEPLKKYFTNIYEGCRTYIPSTPCELPAQLGYVRAYDDTVSEDQILPYVPGLDVVNEKMNEGYKNFKLNKPDIAIECFREAIYRITLLMVDDAEDEKLAHKILETAREYILGLSIELERRSLKEGNTVRMLELAAYFTKAKLSPIHRTNALQVAMSQHFKHKNFLQASYFAGEFLKIISSGPRAEQARKIKNKADSMASDAIPIDFDPYAKFDICAATYKPIYEDTPSVSDPLTGSKYVITEKDKIDRIAMISKIGAPASGLRIRV
B1 was tested, and the binding (Arf1-GFP (S. cerevisiae)) was “binds”, the binding [2] was “binds” and the binding [3] was “binds”.
